Laboratory results taken from patent publication US20230340081A1 (Hoffmann-La Roche, published 2023).

Experiments:
[1] = target: T1, Adw S-HBs protein (adw HBsAg particles, GenHevac (Adw)) (hepatitis B virus, adw subtype); experiment: ELISA, AUC of binding curve; design: unit not given beside the values
T1 construct: also called GenHevac-B

[2] = target: T2, Ayw S-HBs protein (ayw HBsAg particles, Engerix-B (Ayw)) (hepatitis B virus, ayw subtype); experiment: ELISA, AUC of binding curve; design: unit not given beside the values
[3] = target: HBV genotype D viruses (produced in HepG2.2.15 cell culture supernatant) (hepatitis B virus genotype D); experiment: cell-based or functional assay
[4] = target: T1, Adw S-HBs protein (adw HBsAg particles, …); experiment: ELISA on recombinant HBV vaccine particles
[5] = target: T2, Ayw S-HBs protein (ayw HBsAg particles, …); experiment: ELISA on recombinant HBV vaccine particles

B1: Bv6.172 (antibody)
heavy: EVQLVQSGAAVRKPGESLRISCQASGFSFTNYWITWVRQRPGKGLEWMGRIDTRDSYTNYSPSFQGHVTISIDRSINTAYLQWSSLKASDTAMYYCARLSTTYPLNYYGMDVWGQGTTVTVSSASTKGPSVFPLAPSSKSTSGGTAALGCLVKDYFPEPVTVSWNSGALTSGVHTFPAVLQSSGLYSLSSVVTVPSSSLGTQTYICNVNHKPSNTKVDKRV[human IgG1 Fc not spelt out]
light: QSVLTQPPSVSGTPGQRVTISCTGSSSNIGANYDVNWYQQLPGTAPKVLIYGNTNRPSGVPDRFSGSKSGTSASLAITGLQAEDEADYYCQSYDTSLSGWVFGGGTKLTVLGQPKAAPSVTLFPPSSEELQANKATLVCLISDFYPGAVTVAWKADSSPVKAGVETTTPSKQSNNKYAASSYLSLTPEQWKSHRSYSCQVTHEGSTVEKTVAPTECS
[1]
  AUC (serotype binding): 34
[2]
  AUC (serotype binding): 31
[3]
  HBV-gD in vitro neutralization (IC50 µg/ml): 3.06e-06 µg/mL
[4]
  EC50: 6.5 ng/mL
[5]
  EC50: 4 ng/mL
